More than one record can exist for a structure, and the calls need not agree.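 Results are percent growth after 48 hours of single-concentration exposure. 100 means growth as in untreated cells, lower positive values show inhibition; negative values down to -100 show cell death.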 Certain results were filed several times, with different values. The list is limited to them. Rule for the calls: active = growth percent below 10; inactive = the rest. There may be further records. This drug was run again and again over the years, at the concentration stated with the values; each value is one run. Counts like (3×) count equal records among those shown.

The results in this text go back to PubChem BioAssay (NCI).

The subject of assay [1] is NCI-H23 lung. The assay is described as follows: NCI-60 one-dose screen, 48 h (100 = growth as untreated, 0 = no growth, -100 = all killed). Conditions: 2.5 mM.
Assay [2] concerns NCI-H226 lung. The assay is described as above. Conditions: 2.5 mM.

Regarding `O=c1[nH]cc(F)c(=O)[nH]1`, the growth entry in assay [1] (runs of 1991) was “active: -9.18, -18.1, -9.76, -10.1, -0.655% and inactive: 27, 17.9 (2×), 12.9, 41.9, 10.5, 24.4, 39.2, 19.6, 33, 13.9, 14.9, 16, 22.8%”; in assay [1] (runs of 1992), “inactive: 16.4 (2×), 20.7 (2×), 29.2, 24.1, 22.7, 33.5, 25.4, 16.8 (3×), 33.3, 18.8, 29, 23.5, 20.9 (3×), 16.3 (2×), 19.8, 16.7 (2×), 19.9 (2×), 13.3, 21.6, 23.3 (2×), 14.7, 42.9, 17.5 (3×), 22.6, 18.2, 19.4, 10.9, 14.5, 12.7, 24.6, 36, 28.4, 11.4, 14.8 (2×), 93.9, 13, 42, 17.3, 27.4, 27, 13.8 (2×), 39.6, 19, 22.4, 27.8, 15, 23.7, 16.1, 20.8, 11.9, 18.6, 15.6, 10.1, 34.4, 32.2, 16.6, 24.8 (2×), 17.1, 10.3, 22.3, 19.2, 26.1, 31.6, 17.2, 19.1% and active: 8.38, -30.1, -8.86, 0.277, -5.17, 4.12, -4.96, -26.6, 6.93, 7.72, 6.58, -9.69, -25.9, 8.29, -32.2, -7.07, 5.64, -21.8, -20.3, -24.7, 6.8, 9.41, -42.2, -36.6, 1.48, 5.89, 1.82, -10, 7.6, -22 (2×), 1.07, -7.28, 3.43, -24.3, -30, -26.1, 3.58, -20, 9.77, 6.42, -27.6, 0.645, 5.81, -15.6%”; in assay [1] (runs of 1993), “active: 5.1, 9.57, -9.52, -7.88, -19.4, -18, 3.96, 6.64, 3.66, -7.01% and inactive: 18, 28, 15.1, 76.5, 40.3, 10.1, 15.8, 21.4 (2×), 14.3, 23.4, 25.6 (2×), 24.1, 30.9, 25.9 (2×), 14.9, 13.6, 21.7, 27.5, 34.3, 26.3, 23.3, 20.5, 55.1, 20.9, 68.4, 31.1, 22.6, 73.8, 39.6, 40.2, 34.8, 16.4, 29.1, 12.9, 27.2, 36.5, 35.7%”; in assay [1] (runs of 1994), “inactive: 41.1, 31.9, 31.1, 37.6, 28.1, 26.7, 12.3, 17.6, 17.3, 24.5, 24, 27.6, 24.4, 27, 48.7, 30.7, 51.3, 28.6, 24.9, 10.9, 38.7, 36.3, 14.8, 35.4, 27.8, 24.2, 26.8, 28.5% and active: 7.26, 6.92, 8.28, 8.32, 9.24%”; in assay [1] (runs of 1995), “inactive: 63.2, 30.5, 17.3, 24, 12, 25.2, 34.2, 47.7, 42, 33.5, 26.1, 34.3, 15.5, 27.2, 11.4, 17.8, 11.3, 24.3, 26.4, 18.1, 26.9, 22.7, 36.2, 21.3, 25.9, 16, 30, 23.4, 32.6, 22.4, 21.1% and active: 0, -2.47, 0.49, 0.0676, -8.71, 5.62, -19.1, 0.133, -9.87%”; in assay [1] (runs of 1996) it was “inactive: 34.6, 12.4, 22.5, 29.8, 16.3, 25.3, 21.5, 36.2, 11.3, 17.3, 15.1 (2×), 17.6, 32.8, 32.2, 16.4, 14.2, 23.4 (2×), 28.6, 10.3, 10.5, 34.5, 28.1, 27.7, 33.6, 29.7, 20.7, 25.7, 37.5, 32.1, 17.8, 37.1, 15, 13.5, 18.5, 19.9, 50.1, 37.7, 17.4, 14.5, 32, 31.3, 13.1, 11.6, 23.3, 16.9% and active: -11.3, 7.99, 9.93, 7.73, -2.58, -40.5, 7.38, 2, 9.66, 9.75%”. Moreover, the growth result is “inactive: 19, 21.2, 24.4, 12, 38.4, 32.3, 13.8, 18, 24.8, 19.4, 11.6, 26.4, 23.6, 44.2, 20.7, 44, 19.2, 25.2, 17.6, 24.5, 12.9, 33.5, 23.4, 18.2, 26.7, 22.8, 20, 23.2, 15.9, 18.8, 27.1, 24.2, 40.5, 33.1, 20.4, 23, 15.5% and active: 2.32, -29.1, -15.4, -3.58, -5.11%” in assay [1] (runs of 1997); “inactive: 22.4 (2×), 14.4, 34.5, 22.3, 29.9, 22.2, 30.7, 25.3, 16 (2×), 22.9 (2×), 40.5, 12.9, 30.9, 22.6 (2×), 19.7, 32.9, 20.7, 31.3, 17.7, 58.7% and active: 9.6%, -25.6%, -2.78%” in assay [1] (runs of 1998); “inactive: 26.5%, 14%, 18.4% and active: -19.2, 9.8, -1.71, -68, -41.2, -50, 5.88, 8.47, -53.4, -42.3, -30.7, -29.6%” in assay [1] (runs of 1999); “active: -25.2, 8.86, -46.5, -0.481%” in assay [1] (runs of 2000); “active: 6.47, -13.1, -8.27, 9.04% and inactive: 51.5, 34.3, 37.2, 44.6, 37.3, 28.6, 39.1, 40.5, 39.5, 41.4, 38.4, 23.1, 17.9, 48.7, 29.2%” in assay [2] (runs of 1991); “inactive: 45.2, 43.4, 60.8, 25.7, 23.6, 31.1, 61.5, 24.2 (2×), 29.2, 40.2, 45.6, 23.1, 36, 46.8, 16, 49.5, 45.4, 39.5 (3×), 46, 41.3, 54.4, 12.6, 16.9, 15.8, 23.9, 45.7, 20.9, 53.9, 26, 26.4, 39.7, 33.1, 38.4, 12.5, 19.6, 95.4, 65.1, 25.3, 103, 30, 17, 44.8, 18.3, 44.5, 62.2, 41.2, 38.2 (2×), 29.8, 33.8, 24.3, 59.3, 32.6, 22.2, 33.3, 23.3, 16.1, 38.8, 31.5, 39.2, 16.3, 41, 44.9, 76.3, 31.7% and active: -7.83, 6.3, -2.02, -9.44, -12.9, -0.5, -7.64, -5.45, -2, -5.85, 4.37, -4.13, -19.9, -21.4, 9.78, -14.2, -23.8, -37.5, -24.7, -13.5, -47.6, -9.99, -11.8, -11 (2×), -21, -2.05, 5.79, 3.73, -46.2, -8.38, -1.99, -4.22, 3.04, -7.11, -10.6%” in assay [2] (runs of 1992). Besides, the growth entry in assay [2] (runs of 1993) is “inactive: 58.1, 50.6, 63.5, 92, 36.7, 78.8, 54.5 (2×), 60, 50.2, 35.3, 72.2, 44.2, 37.9, 35.8, 50, 47.1, 33.9, 22.6, 47.7, 43.5, 58, 35.4, 29.9, 48.4, 65.5, 63, 68.1, 75, 11.4, 33.5, 35, 39.7, 58.8, 59.3, 61.4, 10.6, 86% and active: -7.27, -12.7, 1.89, -3.74, 3.97, 6.44%”; in assay [2] (runs of 1994), “inactive: 51.5, 45.8, 32.3, 10.9, 34.5, 12.4, 14.9, 37, 50.3, 48.3, 28.5, 45.2, 30.9, 48.8, 61.5, 58.6, 81, 34.6, 28.8, 28.3, 21.3, 11.5, 41.8, 74.8, 57.8, 29.1, 14, 56.8, 30% and active: -1.7, 4.6, 4.86, 8.37%”; in assay [2] (runs of 1995), “inactive: 42.1, 37.9, 40.6, 48.4 (2×), 35.6, 21.1, 59.5, 24.1, 31.2, 26.7, 21.5, 19.1, 26.2, 30.8, 42.3, 35, 39.3, 59.7, 24.5, 28.7, 33.7, 19.9, 38.4, 87.2, 12, 21.2, 33, 51.8% and active: 4.26, 7.43, 6.51, 4.09, -0.614%”.
